Most values come without repeats; read them as rough.
What was measured:
CHO-K1 [1] = experiment: micronucleus frequency (% of nucleated events); higher = more micronuclei (genotoxic)
CHO-K1 [2] = experiment: relative survival (nuclei to bead ratio vs DMSO control) (% of vehicle control); higher = more surviving cells
Protocol: (§1)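 Flow-cytometric in vitro micronucleus assay (Litron MicroFlow) in CHO-K1 cells in 96-well plates, 19 concentrations (4.5-200 µM, n=1 per concentration). Without S9, cells were exposed for 24 h and sampled at 48 h. With Aroclor 1254-induced rat liver S9, cells were exposed for 3-4 h and sampled at 27-28 h. Read-outs are %MN and %hypodiploid nuclei relative to nucleated events, and relative survival as the nuclei-to-bead ratio versus the 1% DMSO vehicle control (x100).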

CHO-K1 [3] = experiment: hypodiploid nuclei frequency (% of nucleated events); higher = more hypodiploid events (aneugenic)
Protocol: as §1
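Wherever hypodiploid nuclei frequency (% of nucleated events) is given: hypodiploid nuclei gated on a flow cytometer with 488 nm excitation after SYTOX Green staining, cultures at 37 °C, positive controls vinblastine without S9 and cyclophosphamide with S9.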
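Wherever micronucleus frequency (% of nucleated events) is given: cells lysed with nuclei stained by SYTOX Green, then micronucleus-gated events counted against nucleated events by flow cytometry with 488 nm excitation.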
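Wherever relative survival (nuclei to bead ratio vs DMSO control) is given: Lysed-cell nuclei stained with SYTOX Green and counted against counting beads by flow cytometry at 488 nm excitation, with vinblastine (no S9) and cyclophosphamide (plus S9) as positive controls.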

c1ccc2cc3ccccc3cc2c1 [Anthracene]
Conditions	hypodiploid nuclei frequency, CHO-K1 [3] [%]	micronucleus frequency, CHO-K1 [1] [%]	relative survival, CHO-K1 [2]
concentration: 4.5 (µM), S9 metabolic activation: with S9, exposure time: 3-4 hours	0.28	2.12	96.2
concentration: 4.5 (µM), S9 metabolic activation: without S9, exposure time: 24 hours	0.66	1.28	129
concentration: 5.63 (µM), S9 metabolic activation: with S9, exposure time: 3-4 hours	0.26	1.92	96.2
concentration: 5.63 (µM), S9 metabolic activation: without S9, exposure time: 24 hours	0.78	1.04	117
concentration: 7.04 (µM), S9 metabolic activation: with S9, exposure time: 3-4 hours	0.26	1.34	92.8
concentration: 7.04 (µM), S9 metabolic activation: without S9, exposure time: 24 hours	0.66	0.96	120
concentration: 8.8 (µM), S9 metabolic activation: with S9, exposure time: 3-4 hours	0.16	0.9	69.3
concentration: 8.8 (µM), S9 metabolic activation: without S9, exposure time: 24 hours	0.36	1.28	123
concentration: 11 (µM), S9 metabolic activation: with S9, exposure time: 3-4 hours	0.18	1.3	93.4
concentration: 11 (µM), S9 metabolic activation: without S9, exposure time: 24 hours	0.62	1.2	133
concentration: 13.7 (µM), S9 metabolic activation: with S9, exposure time: 3-4 hours	0.14	1.14	102
concentration: 13.7 (µM), S9 metabolic activation: without S9, exposure time: 24 hours	0.4	1.36	124
concentration: 17.2 (µM), S9 metabolic activation: with S9, exposure time: 3-4 hours	0.16	2.32	101
concentration: 17.2 (µM), S9 metabolic activation: without S9, exposure time: 24 hours	0.46	1.46	116
concentration: 21.5 (µM), S9 metabolic activation: with S9, exposure time: 3-4 hours	0.26	2.46	88.9
concentration: 21.5 (µM), S9 metabolic activation: without S9, exposure time: 24 hours	0.36	1.38	87.7
concentration: 26.8 (µM), S9 metabolic activation: with S9, exposure time: 3-4 hours	0.34	1.94	88.4
concentration: 26.8 (µM), S9 metabolic activation: without S9, exposure time: 24 hours	0.52	1	96.2
concentration: 33.6 (µM), S9 metabolic activation: with S9, exposure time: 3-4 hours	0.14	1.74	92
concentration: 33.6 (µM), S9 metabolic activation: without S9, exposure time: 24 hours	0.62	1.24	111
concentration: 41.9 (µM), S9 metabolic activation: with S9, exposure time: 3-4 hours	0.2	1.54	92
concentration: 41.9 (µM), S9 metabolic activation: without S9, exposure time: 24 hours	0.9	1.42	85
concentration: 52.4 (µM), S9 metabolic activation: with S9, exposure time: 3-4 hours	0.22	2.18	82.7
concentration: 52.4 (µM), S9 metabolic activation: without S9, exposure time: 24 hours	0.62	1.46	93.1
concentration: 65.5 (µM), S9 metabolic activation: with S9, exposure time: 3-4 hours	0.18	1.6	72.9
concentration: 65.5 (µM), S9 metabolic activation: without S9, exposure time: 24 hours	0.96	1.66	88.3
concentration: 81.9 (µM), S9 metabolic activation: with S9, exposure time: 3-4 hours	0.08	1.92	63.6
concentration: 81.9 (µM), S9 metabolic activation: without S9, exposure time: 24 hours	1.12	1.64	85.7
concentration: 102 (µM), S9 metabolic activation: with S9, exposure time: 3-4 hours	0.32	1.78	63.4
concentration: 102 (µM), S9 metabolic activation: without S9, exposure time: 24 hours	1.62	2.52	83.8
concentration: 128 (µM), S9 metabolic activation: with S9, exposure time: 3-4 hours	0.29	1.64	60.9
concentration: 128 (µM), S9 metabolic activation: without S9, exposure time: 24 hours	0.86	2.24	66.5
concentration: 160 (µM), S9 metabolic activation: with S9, exposure time: 3-4 hours	0.24	1.94	69.3
concentration: 160 (µM), S9 metabolic activation: without S9, exposure time: 24 hours	0.84	3.28	44.4
concentration: 200 (µM), S9 metabolic activation: with S9, exposure time: 3-4 hours	0.26	1.28	70
concentration: 200 (µM), S9 metabolic activation: without S9, exposure time: 24 hours	–	–	27.6

Source: the supplement of paper PMC9151546
